Here are results for 61 compounds from publication PMC6919601, “Identification of Plasmodium dipeptidyl aminopeptidase allosteric inhibitors by high throughput screening” (PLoS ONE, 2019).

SMILES strings stand for the structures. About 230 (0.21%) of roughly 110,000 compounds showed an effect of 50% or more. Some of the results follow.
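Further: 30 min substrate incubation versus DMSO and 10 µM JCP410 controls.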

For the assay, the target named is DPAP1 (Plasmodium falciparum, UniProt Q8IIJ9). The assay is described as follows: primary screen, percent inhibition; read by cleavage of a fluorogenic dipeptide substrate; higher = more effect of the substance. On the set-up: species or system P. falciparum D10 trophozoite lysates; single well.
Sequence of DPAP1 (Q8IIJ9 whole entry, looked up): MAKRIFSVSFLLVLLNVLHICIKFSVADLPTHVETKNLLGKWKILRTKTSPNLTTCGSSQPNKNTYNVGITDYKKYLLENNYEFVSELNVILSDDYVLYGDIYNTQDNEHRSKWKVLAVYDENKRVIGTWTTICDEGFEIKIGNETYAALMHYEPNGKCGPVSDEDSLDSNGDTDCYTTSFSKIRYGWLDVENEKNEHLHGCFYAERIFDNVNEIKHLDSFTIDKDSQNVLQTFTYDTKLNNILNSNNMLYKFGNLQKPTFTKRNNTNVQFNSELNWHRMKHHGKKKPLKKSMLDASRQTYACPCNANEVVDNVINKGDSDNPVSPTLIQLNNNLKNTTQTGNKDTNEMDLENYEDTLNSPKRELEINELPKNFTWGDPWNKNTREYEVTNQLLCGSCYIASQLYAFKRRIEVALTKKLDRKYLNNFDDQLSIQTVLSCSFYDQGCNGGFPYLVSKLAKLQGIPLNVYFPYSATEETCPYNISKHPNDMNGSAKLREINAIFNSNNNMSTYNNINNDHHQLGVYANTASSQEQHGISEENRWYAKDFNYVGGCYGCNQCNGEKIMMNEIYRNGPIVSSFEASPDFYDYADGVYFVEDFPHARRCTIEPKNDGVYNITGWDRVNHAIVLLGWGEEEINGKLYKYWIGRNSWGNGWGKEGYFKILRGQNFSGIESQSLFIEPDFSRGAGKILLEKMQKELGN
As for `COc1ccc(C2C(C(=O)Nc3ccc(F)cc3)=C(C)Nc3nc(-c4cccs4)nn32)c(OC)c1` (stereo not shown), the “% Inhibition @ 10 uM” value is given as -2.86%.
Then `CC(C)(C)OC(=O)N1CCC(n2nnc(C(N)=O)c2N)CC1`, with 3.88%.
`COc1cc2c(cc1OC)C(C)N(c1ncnc3onc(C)c13)CC2` (stereo not shown): the “% Inhibition @ 10 uM” value is given as -5.75%.
Then `CCCSc1ccc2nc(-c3ccccc3)cn2c1`, with 2.62%; and `CC1CC(c2nc(N)cs2)CCO1` (stereo not shown), with -1.99%; and `COC(=O)c1c(N)n(-c2cc(C)cc(C)c2)c2nc3ccccc3nc12`, with 3.39%.
Then `COc1ccc(C(CC(=O)O)NC(=O)c2cc3cc(Br)ccc3oc2=O)cc1OC` (stereo not shown), with 2.7%.
On to `CCc1cc2c(cc3c(=O)n(CCCC(=O)NCCc4ccccc4)ncn32)s1`, for which the “% Inhibition @ 10 uM” value is 6.35%.
With `O=C(Cn1ccc2cc(S(=O)(=O)N3CCCCC3)ccc21)N1CCN(c2ccccn2)CC1`, the “% Inhibition @ 10 uM” value was -1.63%.
With `CCOc1ccc(CCNC(=O)CCS(=O)(=O)c2ccc(Br)cc2)cc1OCC`, the “% Inhibition @ 10 uM” value amounted to 5.85%.
With `CCC1CCCCN1CCCNC(=O)c1noc2c1COc1ccc(C)cc1-2` (stereo not shown), the “% Inhibition @ 10 uM” value is listed as -5.3%.
Then `CCCCc1ccc(NC(=O)c2cnccn2)cc1`, with 2.91%; and `O=C(O)c1cccc(-c2ccc(/C=C/c3cc(C(F)(F)F)nc(O)n3)o2)c1`, with 12.3%; and `COc1cc(C2CC(c3c(O)cc(C)oc3=O)=NCCS2)cc(OC)c1OC` (stereo not shown), with -3.62%.
With `CN(C)CCN(Cc1ccccc1)Cc1coc2ccc(Cl)cc2c1=O`, the “% Inhibition @ 10 uM” value is listed as -4.75%.
For the compound `CSc1ccc(NC(=O)c2sc3nc4c(cc3c2N)CCC4)cc1`, the “% Inhibition @ 10 uM” value is -2.77%.
In the case of `CCOC(=O)N1CCC(NC(=O)c2cc3c(s2)-c2c(C)cccc2OC3)CC1`, the “% Inhibition @ 10 uM” value is on record as -4.85%.
Regarding `O=C(CCN1C(=O)c2ccccc2C1=O)Nc1ccccc1O`, the “% Inhibition @ 10 uM” value is given as -4.06%.
For the compound `CCC(C)NC(=O)c1ccc2c(c1)sc1nc(-c3ccc(F)cc3)cn12` (stereo not shown), the “% Inhibition @ 10 uM” value is given as 1.09%.
On to `COc1ccc(OC)c(C2C(C#N)=C(N)Oc3c2c(O)nc2ccccc32)c1` (stereo not shown), for which the “% Inhibition @ 10 uM” value was -2.21%.
Consider `COc1ccc(C(=O)Nc2ccccc2C(=O)NC(C(=O)Nc2ccccc2)C(C)C)cc1` (stereo not shown), for which the “% Inhibition @ 10 uM” value amounted to 10.5%.
Take `O=C(CCN1C(=O)c2ccccc2C1=O)NC1CCCCC1`: the “% Inhibition @ 10 uM” value is given as 1.34%.
Then `COc1cc2cc(=O)n(Cc3ccccc3)c(C)c2cc1OC`, with 1.43%; and `Cc1cccc(NC(=O)C2CC(=O)N(c3ccc(C(C)(C)C)cc3)C2)c1C` (stereo not shown), with 1.83%.
Take `CCOc1ccc(C(=O)C2=C(O)C(=O)N(CCN(CC)CC)C2c2ccc(F)cc2)c(C)c1` (stereo not shown): the “% Inhibition @ 10 uM” value was 3.15%.
Then `CC(NC(=O)c1cccc2c1C(=O)N(Cc1cccnc1)C2)C12CC3CC(CC(C3)C1)C2` (stereo not shown), with -0.499%; and `CC(=O)Nc1cccc(NC(=O)Nc2cccc(Cl)c2)c1`, with -0.192%; and `Cc1nc(SCC(=O)Nc2ccccc2)nc2c1CCCC2`, with -1.61%.
Take `NC(=O)c1cc(S(=O)(=O)NCCCc2ccccc2)cs1`: the “% Inhibition @ 10 uM” value was 6.1%.
Regarding `COc1ccc(CCNC(=O)c2cc3n(n2)C(C(F)(F)F)CC(c2ccco2)N3)cc1` (stereo not shown), the “% Inhibition @ 10 uM” value is reported as -0.958%.
Then `COc1ccc(C/C(O)=C(\C#N)c2nc3ccccc3[nH]2)cc1OC`, with -3.78%.
Then `CCC1CCCCN1Cc1ccc(CNC(=O)Cn2ncc3c4ccccc4nc-3c2O)o1` (stereo not shown), with 5.27%.
Then `CS(=O)(=O)c1ccc(C(=O)N[C@@H](Cc2cc(I)c(O)c(I)c2)C(=O)NCC#N)cc1`, with 4.63%; and `CC(C)(C)NC(=O)C1CCN(S(=O)(=O)c2cccc3nsnc23)CC1`, with 3.53%.
On to `Cc1ccc(C)n1-c1nnc(N2CCC(C(=O)NCCCN3CCN(C)CC3)CC2)s1`, for which the “% Inhibition @ 10 uM” value turned out to be 2.76%.
Regarding `O=c1/c(=C/c2ccc(-c3ccc(-n4cnnn4)cc3)o2)sc2nc3ccccc3n12`, the “% Inhibition @ 10 uM” value stood at 9.77%.
Then `O=C(NC1CCCCCCC1)C1CCCN(c2nc3ccccc3o2)C1` (stereo not shown), with -3.12%; and `FC(F)(F)Oc1ccc(-n2nnnc2SCc2ccccn2)cc1`, with -5.96%; and `C=CCn1c(SC)nc(O)cc1=O`, with -1.22%.
Consider `Cc1oc(-c2ccc(Cl)cc2)nc1CN1CCCC(C(=O)NCc2cccnc2)C1` (stereo not shown), for which the “% Inhibition @ 10 uM” value is reported as -1.05%.
With `CN(C(=O)Cc1coc2ccc3ccccc3c12)c1ccccc1`, the “% Inhibition @ 10 uM” value is recorded as -1.44%.
For `COc1cccc(CNC(=O)CN2C(=O)c3ccccc3Sc3ncccc32)c1`, the “% Inhibition @ 10 uM” value was -12.5%.
Then `Cc1nc2nc(C)c(N)c(O)n2n1`, with -2.19%; and `CCN(CC)CCCn1c(C)cc2c(c1=O)C(c1ccc(OC)c(OC)c1OC)C(C#N)=C(N)O2` (stereo not shown), with 2.31%.
Then `COc1ccccc1/C=C/C1=NC(=C\C(Cl)=C\c2ccccc2)/C(=O)O1`, with -2.6%.
Then `CCOc1ccc(C2c3c(oc4ccc(F)cc4c3=O)C(=O)N2CCCN2CCOCC2)cc1OC` (stereo not shown), with -4.78%; and `Cc1ccc(-c2c(NCc3ccccn3)c(=O)c2=O)cc1`, with 1.69%; and `CCOC(=O)C1=CN(Cc2ccc(Cl)cc2)C=C(C(=O)OCC)C1c1ccccc1OCC`, with 3.45%.
With `COc1ccc(CN2CCN(Cc3ccc(C(F)(F)F)cc3)CC2)cc1`, the “% Inhibition @ 10 uM” value was -8.46%.
Regarding `Cc1ccsc1CN1CCOCC1`, the “% Inhibition @ 10 uM” value is listed as -3.57%.
Consider `COc1cccc(C2=NN(C)c3nc4c(c(=O)n(C)c(=O)n4C)n3C2)c1`, for which the “% Inhibition @ 10 uM” value is reported as -3.04%.
For the compound `C=CCOc1ccccc1/C=c1\sc2nc(=O)c(Cc3ccc(C)cc3)nn2c1=O`, the “% Inhibition @ 10 uM” value was 4.51%.
As for `CCCOc1ccc(Br)cc1/C=C(/C#N)c1nc2ccccc2[nH]1`, the “% Inhibition @ 10 uM” value is -2.21%.
Then `CCOC(=O)c1c(N2CCN(c3ccccc3)CC2)cc(C)nc1C`, with -0.807%; and `CCN(CC)CCCNC(=O)C1CCCN(c2ncnc3onc(C)c23)C1` (stereo not shown), with 2.69%.
Then `CCOc1ccc(N2CC(C(=O)Nc3ccc4c(c3)OCO4)CC2=O)cc1` (stereo not shown), with -0.872%.
For the compound `CCOc1ccccc1C(=O)Nc1cccc(Br)c1`, the “% Inhibition @ 10 uM” value is listed as 1.01%.
Regarding `O=C(CN(Cc1ccc(Cl)c(Cl)c1)S(=O)(=O)c1ccccc1)Nc1ccc2c(c1)OCO2`, the “% Inhibition @ 10 uM” value is given as -1.17%.
On to `CCc1ccc(N2C(=O)CSC2c2ccc(Cl)cc2Cl)cc1` (stereo not shown), for which the “% Inhibition @ 10 uM” value was -1.75%.
Turning to `COc1cccc2c1OC1(C)CC2C(S(=O)(=O)c2ccc(Cl)cc2)C(=O)N1` (stereo not shown), the “% Inhibition @ 10 uM” value is 4.14%.
Then `CN(CCNC(=O)c1cc(O)nc2ccc(S(=O)(=O)N3CCCCCC3)cc12)Cc1ccccc1`, with 0.387%.
